Experimental findings from the supplement of paper PMC9446081 are described below.

Among all 39,000 compounds or so, about 220 (0.56%) showed activity. The list shows a part of the results.
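Note: static incubation at 37 °C against the wild-type strain, values averaged over two biological replicates.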

The test concerns Escherichia coli K-12 BW25113. Nature of the test: relative growth (OD600 normalised to plate interquartile mean) (fraction); higher = less growth inhibition, active = 0.2 or less. The conditions noted are these: 50 µM; LB; incubation time: overnight (16-24 h).
On to `Cc1noc(C)c1NC(=O)Nc1ccc2c(c1)C(=O)N([C@H](C)CO)C[C@H](C)[C@@H](CN(C)Cc1ccccc1)OCCCC[C@@H](C)O2`, for which the relative growth is inactive: 0.991.

Consider `COc1ccc(CN(C)C[C@@H]2OCCCC[C@H](C)Oc3ccc(NC(=O)NC4CCCCC4)cc3C(=O)N([C@H](C)CO)C[C@H]2C)cc1`, for which the relative growth is inactive: 0.98.

As to `NC(=O)NCCCC(=O)O`, the relative growth was inactive: 0.997.

Take `CN(C)C(=O)C[C@H]1CC[C@H](NC(=O)C2CCOCC2)[C@H](CO)O1`: the relative growth was inactive: 0.989.

With `CCN(CC)CCNC(=O)c1cc(Br)c(N)cc1OC`, the relative growth was inactive: 1.1.

For `Cn1sc(=O)n(Cc2ccccc2)c1=O`, the relative growth is inactive: 0.945.

Turning to `C[C@@H]1CN([C@H](C)CO)C(=O)c2cccc(NC(=O)c3ccncc3)c2O[C@H]1CN(C)Cc1ccc(Oc2ccccc2)cc1`, the relative growth is inactive: 1.01.

Regarding `CCCNC(=O)[C@@]1(C)c2ccccc2C(=O)N(Cc2ccc(OC(F)(F)F)cc2)[C@H]1c1ccc(CO)cc1`, the relative growth is inactive: 0.956.

On to `C[C@@H]1CN([C@@H](C)CO)C(=O)c2cc(NC(=O)C3CCCCC3)ccc2O[C@@H](C)CCCCO[C@H]1CN(C)CC1CCCCC1`, for which the relative growth is inactive: 0.982.

`COc1ccc(S(=O)(=O)N[C@H]2C=C[C@H](CC(=O)N3CCC(Cc4ccccc4)CC3)O[C@@H]2CO)cc1`: the relative growth is inactive: 0.883.

For `C[C@@H]1CN([C@H](C)CO)C(=O)Cc2cc(NC(=O)C3CC3)ccc2O[C@H]1CN(C)C(=O)Nc1ccc2c(c1)OCO2`, the relative growth is inactive: 1.03.

`CC(=O)N1CCO[C@H]2CCN(C(=O)c3cn(C)cn3)C[C@H]21`: the relative growth was inactive: 1.02.

As to `C[C@@H]1CN([C@H](C)CO)C(=O)c2cc(NS(=O)(=O)c3ccc(F)cc3)ccc2O[C@@H](C)CCCCO[C@@H]1CN(C)S(C)(=O)=O`, the relative growth was inactive: 1.01.

In the case of `C[C@@H]1CN([C@H](C)CO)C(=O)c2cc(NS(=O)(=O)c3cn(C)cn3)ccc2O[C@H]1CN(C)Cc1ccc(C(=O)O)cc1`, the relative growth was inactive: 0.983.

Regarding `C[C@H](CO)N1C[C@H](C)[C@@H](CN(C)C(=O)Nc2ccc3c(c2)OCO3)Oc2ccc(NC(=O)Cn3cnnn3)cc2CC1=O`, the relative growth is inactive: 0.983.

`CN1CCC(N(C)C(=O)COc2ccc(S(=O)(=O)N3CCOCC3)cc2)CC1`: the relative growth was inactive: 0.988.

With `O=C(C[n+]1ccc(/C=N/O)cc1)N1CCCCC1`, the relative growth is inactive: 0.934.

Consider `C=CCN1C(=O)[C@@]2(O[C@@H](CCn3cc([C@H](O)c4ccccc4)nn3)[C@H]([Si](C)(C)c3ccc(OC)cc3)[C@H]2C)c2cc(N3C(=O)c4cccc5cccc3c45)ccc21`, for which the relative growth was inactive: 1.02.

Regarding `Cc1ccc(S(=O)(=O)Nc2ccc3c(c2)C(=O)N([C@@H](C)CO)C[C@@H](C)[C@@H](CN(C)C(=O)Nc2cccc4ccccc24)O3)cc1`, the relative growth is inactive: 1.

As for `Cc1ccc(S(=O)(=O)Nc2ccc3c(c2)C(=O)N([C@H](C)CO)C[C@H](C)[C@H](CN(C)CC2CCCCC2)OCCCC[C@H](C)O3)cc1`, the relative growth was inactive: 0.999.

Turning to `CC(C)NC(=O)N(C)C[C@H]1Oc2ccc(NC(=O)CCC(F)(F)F)cc2C(=O)N([C@H](C)CO)C[C@@H]1C`, the relative growth was inactive: 1.01.

Consider `C[C@@H]1CN([C@H](C)CO)C(=O)c2cc(NC(=O)CCN3CCOCC3)ccc2O[C@H]1CN(C)S(=O)(=O)c1ccc(F)cc1`, for which the relative growth is inactive: 1.03.

With `O=C(C[C@@H]1CC[C@@H](NC(=O)CN2CCOCC2)[C@@H](CO)O1)NCCc1ccncc1`, the relative growth was inactive: 0.992.

Consider `C[C@@H]1CN([C@@H](C)CO)C(=O)Cc2cc(NC(=O)NC3CCCCC3)ccc2O[C@H]1CN(C)Cc1ccc(Oc2ccccc2)cc1`, for which the relative growth is inactive: 1.02.

With `CC(C)NC(=O)N(C)C[C@H]1Oc2ccc(NC(=O)C3CCCCC3)cc2CC(=O)N([C@H](C)CO)C[C@@H]1C`, the relative growth is inactive: 0.996.

`C[C@@H]1CCCCO[C@@H](CN(C)S(=O)(=O)c2cccs2)[C@@H](C)CN([C@H](C)CO)C(=O)c2cc(NC(=O)c3ccccc3)ccc2O1`: the relative growth is inactive: 1.01.

On to `C[C@@H]1CN([C@H](C)CO)S(=O)(=O)c2ccc(C#CC3CC3)cc2O[C@@H]1CN(C)C(=O)c1cccc(F)c1`, for which the relative growth is inactive: 1.02.

On to `C[C@@H]1CCCCO[C@H](CN(C)CC2CC2)[C@H](C)CN([C@@H](C)CO)C(=O)c2cc(NC(=O)c3ccccc3)ccc2O1`, for which the relative growth is inactive: 0.935.

Take `CC(=N)NCCCC[C@@H](N)C(=O)O`: the relative growth is inactive: 0.98.

For the molecule `O=C(C[C@H]1C[C@H]2c3cc(NC(=O)c4ccc5c(c4)OCO5)ccc3O[C@H]2[C@@H](CO)O1)NCc1cccnc1`, the relative growth is inactive: 1.02.

Take `C[C@@H]1CN([C@@H](C)CO)C(=O)c2cc(NC(=O)CCC(F)(F)F)ccc2O[C@H]1CN(C)Cc1ccc(C(=O)Nc2ccccc2N)cc1`: the relative growth was inactive: 0.976.

For the molecule `CC(=O)OC[C@@H]1O[C@H](O[C@@H]2CC[C@]34C[C@]35CC[C@]3(C)[C@@H]([C@@H](C)[C@H]6C[C@@H](O)C(C)(C)O6)CC[C@@]3(C)[C@H]5CC[C@H]4[C@H]2C)[C@@H](O)[C@H](O)[C@@H]1O[C@H]1O[C@@H](CO)[C@@H](O[C@H]2O[C@@H](CO)[C@@H](O)[C@@H](O)[C@@H]2O)[C@@H](O[C@H]2O[C@@H](C)[C@@H](O)[C@@H](O)[C@@H]2O)[C@@H]1O`, the relative growth is inactive: 0.993.

Turning to `COc1ccc(NC(=O)Nc2ccc3c(c2)C(=O)N([C@H](C)CO)C[C@@H](C)[C@@H](CN(C)C(=O)Nc2ccc4c(c2)OCO4)OCCCC[C@@H](C)O3)cc1`, the relative growth was inactive: 1.03.

For `CCOC(N)=O`, the relative growth was inactive: 1.08.

With `COc1ccc(S(=O)(=O)Nc2ccc3c(c2)C(=O)N([C@@H](C)CO)C[C@H](C)[C@@H](CN(C)Cc2ccc(Oc4ccccc4)cc2)O3)cc1`, the relative growth was inactive: 0.978.

Consider `COc1ccc(S(=O)(=O)Nc2ccc3c(c2)CC(=O)N([C@H](C)CO)C[C@@H](C)[C@@H](CN(C)C(=O)NC(C)C)O3)cc1`, for which the relative growth was inactive: 1.03.

On to `Cc1cccc(C(=O)N2CCC[C@@H](Cn3cc(C(C)(C)N)nn3)C2)c1C`, for which the relative growth is inactive: 1.01.

`C[C@@H]1CN([C@@H](C)CO)C(=O)c2cccc(NC(=O)CCCCCC(=O)Nc3ccccc3N)c2O[C@H]1CN(C)CC1CCCCC1`: the relative growth was inactive: 1.

Turning to `CN(C)C(=O)C1CCN(S(C)(=O)=O)CC1`, the relative growth is inactive: 1.

`CCCCCC=CCCC(=O)NC1C(Oc2c3cc4cc2Oc2ccc(cc2Cl)C(OC2OC(CO)C(O)C(O)C2NC(C)=O)C2NC(=O)C(NC(=O)C4NC(=O)C4NC(=O)C(Cc5ccc(c(Cl)c5)O3)NC(=O)C(N)c3ccc(O)c(c3)Oc3cc(O)cc4c3)c3ccc(O)c(c3)-c3c(OC4OC(CO)C(O)C(O)C4O)cc(O)cc3C(C(=O)O)NC2=O)OC(CO)C(O)C1O` (stereo not given) [TEICOPLANIN [A(2-1) shown]]: the relative growth is inactive: 1.05.

On to `COc1ccc(NC(=O)N(C)C[C@@H]2Oc3ccc(NC(=O)CCN4CCOCC4)cc3C(=O)N([C@H](C)CO)C[C@@H]2C)cc1`, for which the relative growth is inactive: 0.982.

As for `N#CCc1ccc(Cl)cc1F`, the relative growth is inactive: 0.992.

For the molecule `Brc1ccc(-c2ccc(Br)s2)s1`, the relative growth was inactive: 1.04.

For `C[C@@H]1CN([C@H](C)CO)C(=O)c2cc(NS(C)(=O)=O)ccc2O[C@H]1CN(C)C(=O)Nc1ccc(C(F)(F)F)cc1`, the relative growth was inactive: 0.832.

Consider `CN1CCN(C(=O)C[C@H]2C=C[C@@H](NS(=O)(=O)c3cccc(F)c3)[C@@H](CO)O2)CC1`, for which the relative growth is inactive: 1.02.

Consider `COc1ccc(NC(=O)Nc2ccc3c(c2)C(=O)N([C@H](C)CO)C[C@@H](C)[C@H](CN(C)Cc2ccc(Cl)c(Cl)c2)OCCCC[C@@H](C)O3)cc1`, for which the relative growth is inactive: 1.02.

As for `C[C@H](CO)N1C[C@H](C)[C@H](CN(C)C(=O)CCC(F)(F)F)OCCCC[C@H](C)Oc2ccc(NS(=O)(=O)c3cccs3)cc2C1=O`, the relative growth was inactive: 1.02.

For `C[C@@H]1CCCCO[C@@H](CN(C)C(=O)CCC(F)(F)F)[C@@H](C)CN([C@@H](C)CO)C(=O)c2cc(NC(=O)NC3CCCCC3)ccc2O1`, the relative growth was inactive: 0.994.

With `C[C@H](CO)N1C[C@H](C)[C@H](CN(C)Cc2ccc(-c3ccccc3)cc2)Oc2ccc(NS(=O)(=O)c3ccc(F)cc3)cc2C1=O`, the relative growth was inactive: 0.921.

Regarding `COCC(=O)N(C)C[C@H]1Oc2cc(C#CCC3CCCC3)ccc2S(=O)(=O)N([C@H](C)CO)C[C@@H]1C`, the relative growth was inactive: 0.991.

As for `C[C@@H]1CCCn2cc(nn2)COCCNC1=O`, the relative growth is inactive: 1.

Consider `C[C@@H]1CN([C@@H](C)CO)C(=O)c2cccc(NC(=O)Nc3ccccc3)c2O[C@@H]1CN(C)C(=O)Nc1cccc2ccccc12`, for which the relative growth was inactive: 1.

Turning to `COc1cc(Cc2cc3c(c(CCc4ccccc4)n2)[Si](C(C)C)(C(C)C)OC3)cc(OC)c1OC`, the relative growth was inactive: 1.03.

Take `OCC1(CO)COC(COc2ccccc2)=N1`: the relative growth is inactive: 1.03.

For the molecule `CC(C)NC(=O)N(C)C[C@@H]1Oc2ccc(NC(=O)CCCN(C)C)cc2C(=O)N([C@@H](C)CO)C[C@@H]1C`, the relative growth is inactive: 0.993.

In the case of `C[C@@H]1CN([C@H](C)CO)C(=O)Cc2cc(NS(=O)(=O)c3cn(C)cn3)ccc2O[C@H]1CN(C)Cc1ccccc1`, the relative growth is inactive: 0.995.

For `O=C(NCO)c1cccnc1`, the relative growth is inactive: 0.97.

`CC(C)CC#Cc1cnc2c(c1)C(=O)N([C@H](C)CO)C[C@@H](C)[C@H](CN(C)C(=O)CN1CCOCC1)O2`: the relative growth is inactive: 1.02.

Regarding `C[C@@H]1CCCCO[C@@H](CN(C)Cc2ccc3c(c2)OCO3)[C@@H](C)CN([C@@H](C)CO)C(=O)c2cc(NC(=O)Nc3ccc(F)cc3)ccc2O1`, the relative growth is inactive: 0.958.

Regarding `COc1cccc(S(=O)(=O)N(C)C[C@H]2Oc3ncc(C#CCN(C)C)cc3C(=O)N([C@@H](C)CO)C[C@H]2C)c1`, the relative growth is inactive: 1.02.
